Assay results from PMC12655037, “Mitochondrial-Targeted Triphenylphosphonium-Conjugated Ionophores with Enhanced Cytotoxicity in Cancer Cells” (Molecules, 2025).

Legend:
[1] = test system: A549 human lung cancer cells; test: MTT assay, A549 cells; format: cell-based; conditions: for IC50: Homo sapiens, A549, MTT, 72 h, mean ± SD
[2] = test system: MDA-MB-231 human breast cancer cells; test: MTT assay, MDA-MB-231 cells; format: cell-based; conditions: for IC50: Homo sapiens, MDA-MB-231, MTT, 72 h, mean ± SD
[3] = test system: PC3 human metastatic prostate cancer cells; test: MTT assay, PC3 cells; format: cell-based; conditions: for IC50: Homo sapiens, PC-3, MTT, 72 h, mean ± SD
[4] = test system: MiaPaCa human pancreas cancer cells; test: MTT assay, MiaPaCa cells; format: cell-based; conditions: for IC50: Homo sapiens, MIA PaCa-2, MTT, 72 h, mean ± SD
[5] = test system: SW480 human primary colon cancer cells; test: MTT assay, SW480 cells; format: cell-based; conditions: for IC50: Homo sapiens, SW480, MTT, 72 h, mean ± SD
[6] = test system: HaCaT human immortal keratinocytes; test: cells; format: cell-based; conditions: 72 h, read-out: IC50 HaCaT (normal cells)
[7] = test system: SW620 human metastatic colon cancer cells; test: MTT assay, SW620 cells; format: cell-based; conditions: for IC50: Homo sapiens, SW-620, MTT, 72 h, mean ± SD
[8] = test system: V79 Chinese hamster lung fibroblasts; test: MTT assay, V79 cells; format: cell-based; conditions: Cricetulus griseus, Fibroblast, 72 h, read-out: IC50 V79 (normal cells)
[9] = test system: whole non-permeabilized A549 cells; conditions: for effect on oxygen flux (cellular respiration rate): A549 cells, 0.1, 0.3 and 1 µM, normalized to baseline; for oxygen flux after FCCP addition: A549 cells, FCCP added after the compound
MDA-MB-231 cells [10] = test: MitoTracker Red CMXRos flow cytometry (mitochondrial membrane potential), MDA-MB-231; conditions: MDA-MB-231, 48 h at IC50 concentration
MDA-MB-231 cells [11] = test: MitoTracker Green FM flow cytometry (mitochondrial mass), MDA-MB-231; conditions: MDA-MB-231, 48 h at IC50 concentration

SMILES: COc1cccc2c1C(=O)c1c(O)c3c(c(O)c1C2=O)C[C@@](O)(C(=O)CO)C[C@@H]3O[C@H]1C[C@H](N)[C@H](O)[C@H](C)O1 [DOX, Doxorubicin, reference compound]
- IC50 [1]: 600 ± 200 nM
- Selectivity index (SI) HaCaT / A549 ([1]; SI = IC50 HaCaT/IC50 A549): 0.5
- Selectivity index (SI) V79 / A549 ([1]; SI = IC50 V79/IC50 A549): 3.3
- IC50 [2]: 800 ± 30 nM
- Selectivity index (SI) HaCaT / MDA-MB-231 ([2]; SI = IC50 HaCaT/IC50 MDA-MB-231): 0.4
- Selectivity index (SI) V79 / MDA-MB-231 ([2]; SI = IC50 V79/IC50 MDA-MB-231): 2.5
- IC50 [3]: 600 ± 20 nM
- Selectivity index (SI) HaCaT / PC3 ([3]; SI = IC50 HaCaT/IC50 PC3): 0.5
- Selectivity index (SI) V79 / PC3 ([3]; SI = IC50 V79/IC50 PC3): 3.3
- IC50 [4]: 1100 ± 100 nM
- Selectivity index (SI) HaCaT / MiaPaCa ([4]; SI = IC50 HaCaT/IC50 MiaPaCa): 0.3
- Selectivity index (SI) V79 / MiaPaCa ([4]; SI = IC50 V79/IC50 MiaPaCa): 1.8
- IC50 [5]: 300 ± 80 nM
- Selectivity index (SI) V79 / SW480 ([5]; SI = IC50 V79/IC50 SW480): 6.7
- Selectivity index (SI) HaCaT / SW480 ([5]; SI = IC50 for normal cell line (HaCaT)/IC50 for cancer cell line (SW480)): 1.0
- IC50 ([6]; MTT, mean ± SD): 300 ± 10 nM
- IC50 [7]: 300 ± 80 nM
- Selectivity index (SI) HaCaT / SW620 ([7]; SI = IC50 HaCaT/IC50 SW620): 1.0
- Selectivity index (SI) V79 / SW620 ([7]; SI = IC50 V79/IC50 SW620): 6.7
- IC50 ([8]; MTT, mean ± SD): 2000 ± 30 nM

SMILES: CC[C@@]1([C@@H]2O[C@@H]([C@H]3O[C@@](O)(CO)[C@H](C)C[C@@H]3C)C[C@@H]2C)CC[C@H]([C@]2(C)CC[C@]3(C[C@H](O)[C@@H](C)[C@@H]([C@@H](C)[C@@H](OC)[C@H](C)C(=O)O)O3)O2)O1 [MON, Monensin A, reference compound]
- IC50 [1]: 2600 ± 1000 nM
- IC50 [2]: 4900 ± 300 nM
- IC50 [3]: 3400 ± 1000 nM
- IC50 [4]: 1100 ± 200 nM
- IC50 [5]: 2500 ± 200 nM
- IC50 [7]: 2700 ± 100 nM
- IC50 ([8]; MTT, mean ± SD): 3600 ± 500 nM

SMILES: CC[C@@H](C(=O)[C@@H](C)[C@@H](O)[C@H](C)[C@@H]1O[C@@H]([C@@H](CC)C(=O)O)CC[C@@H]1C)[C@H]1O[C@]2(C=C[C@H](n3cc(COC(=O)CCC[P+](c4ccccc4)(c4ccccc4)c4ccccc4)nn3)[C@]3(CC[C@@](C)([C@H]4CC[C@](O)(CC)[C@H](C)O4)O3)O2)[C@H](C)C[C@@H]1C [1b]
- IC50 [6]: 2800 ± 200 nM
- IC50 [8]: 4500 ± 400 nM

SMILES: CC[C@@H](C(=O)[C@@H](C)[C@@H](O)[C@H](C)[C@@H]1O[C@@H]([C@@H](CC)C(=O)O)CC[C@@H]1C)[C@H]1O[C@]2(C=C[C@H](NC(=O)CCC[P+](c3ccccc3)(c3ccccc3)c3ccccc3)[C@]3(CC[C@@](C)([C@H]4CC[C@](O)(CC)[C@H](C)O4)O3)O2)[C@H](C)C[C@@H]1C [1e]
- effect on oxygen flux (cellular respiration rate) [9]: did not cause any changes
- IC50 [6]: 8300 ± 700 nM
- IC50 [8]: 8800 ± 400 nM

SMILES: CC[C@@H](C(=O)[C@@H](C)[C@@H](O)[C@H](C)[C@@H]1O[C@@H]([C@@H](CC)C(=O)O)CC[C@@H]1C)[C@H]1O[C@]2(C=C[C@H](n3cc(CNC(=O)CCC[P+](c4ccccc4)(c4ccccc4)c4ccccc4)nn3)[C@]3(CC[C@@](C)([C@H]4CC[C@](O)(CC)[C@H](C)O4)O3)O2)[C@H](C)C[C@@H]1C [1c]
- IC50 [6]: 7100 ± 1200 nM
- IC50 [8]: 17000 ± 2800 nM

SMILES: CC[C@@H](C(=O)[C@@H](C)[C@@H](O)[C@H](C)[C@@H]1O[C@@H]([C@@H](CC)C(=O)OCCCCCC[P+](c2ccccc2)(c2ccccc2)c2ccccc2)CC[C@@H]1C)[C@H]1O[C@]2(C=C[C@@H](OC(=O)CCC(=O)OCCCCCC[P+](c3ccccc3)(c3ccccc3)c3ccccc3)[C@]3(CC[C@@](C)([C@H]4CC[C@](O)(CC)[C@H](C)O4)O3)O2)[C@H](C)C[C@@H]1C [1f]
- effect on oxygen flux (cellular respiration rate) [9]: increased cellular respiration
- oxygen flux after FCCP addition [9]: reduction in the respiration rate

SMILES: CCC1(C2OC(C3OC(O)(COC(=O)CCC(=O)OCCC[P+](c4ccccc4)(c4ccccc4)c4ccccc4)C(C)CC3C)CC2C)CCC(C2(C)CCC3(CC(O)C(C)C(C(C)C(OC)C(C)C(=O)OCCC[P+](c4ccccc4)(c4ccccc4)c4ccccc4)O3)O2)O1 (stereo not drawn) [2f]
- effect on oxygen flux (cellular respiration rate) [9]: strongest effect
- MTRed CMXRos positive stained cells (MDA-MB-231 cells [10]): 15.5%
- IC50 [6]: 300 ± 100 nM
- IC50 [8]: 3200 ± 1100 nM

SMILES: CCCC[P+](CCCC)(CCCC)Cc1cn([C@H]2C=C[C@]3(O[C@H]([C@@H](CC)C(=O)[C@@H](C)[C@@H](O)[C@H](C)[C@@H]4O[C@@H]([C@@H](CC)C(=O)O)CC[C@@H]4C)[C@@H](C)C[C@H]3C)O[C@@]23CC[C@@](C)([C@H]2CC[C@](O)(CC)[C@H](C)O2)O3)nn1 [1d]
- effect on oxygen flux (cellular respiration rate) [9]: increased cellular respiration
- oxygen flux after FCCP addition [9]: uncoupled mitochondria far more
- IC50 [6]: 2400 ± 100 nM
- IC50 [8]: 4800 ± 200 nM

SMILES: CC[C@@H](C(=O)[C@@H](C)[C@@H](O)[C@H](C)[C@@H]1O[C@@H]([C@@H](CC)C(=O)O)CC[C@@H]1C)[C@H]1O[C@]2(C=C[C@H](n3cc(C[P+](c4ccccc4)(c4ccccc4)c4ccccc4)nn3)[C@]3(CC[C@@](C)([C@H]4CC[C@](O)(CC)[C@H](C)O4)O3)O2)[C@H](C)C[C@@H]1C [1a]
- effect on oxygen flux (cellular respiration rate) [9]: Significant decrease in oxygen flux
- cells positive for MTGreen fluorescence (MDA-MB-231 cells [11]): 63.03%
- IC50 [6]: 3800 ± 300 nM
- IC50 [8]: 4800 ± 600 nM

Read-outs that look alike come from different tables or passages of the source.
